The text below walks through data of the RNAGym collection of RNA variant scans (doi:10.7554/elife.90254).

First the molecules themselves.
B1: LINE1-full (parent)
chain: UACGUAGGUGGUUUUCCCCUGAUAGUGCUAAGGGGGCCUGGAAGUUUGGACUGGGCAGAGCUCAACACAGCGUGGCAAAGUGGCUGUGGCUAGACUGCCUCUCUGGAUUCCUCGUCACUCAGCAGGGCAUCUCUGAGAGAAAUGCC

The source gives no read counts; variants with many changes may rest on few reads.

In this series the parent is B1. Put plainly: self-cleavage, relative activity (ratio to wild type); higher = more cleavage; in vitro, sequencing; the parent is a self-cleaving ribozyme.
Consider UACGUAGGUGGUUUUCCCCUGAUAGUGCUAAGGGGGCCUGGAAGUUUGGACUGGGCAUAGCUCAACACAGCGUGGCAAAGUGGCUGUGGCUUGGCUGCCUCUCUGGAUUCCUCGUCACUCAGCAGGGCACCUCUGAGAGAAUUGCC, for which the self-cleavage is 0.12.
The same measure for UACGUAGGUGGUUUUCCCCUGAUAGUGCUAAGGGGGCCUGGAAGUUUGGACUGGGCAGGGCUCAACACAGCGUGGCAAAGUGGCUGUGGCUAGACUGCCUCUCUGGAUUCCUCGUCACUCAGCAGGGCAUCUCUGAGAGGAAAGCC: 0.07; for UACGUAGGUGGUUUUCCCCUGAUAGUGCUAAGGGGGCCUGGAAGUUUGGACUGGGCAGGGCUCUACACAGAGCGGCAAAGUGGCUGUGGCUAGACUGCCUCUCUGGAUUCCUCGUCACUCAGCAGGGCAUCUCUGAGAGAAAUGCC: 0.02; for UACGUAGGUGGUUUUCCCCUGAUAGUGCUAAGGGGGCCUGGAAGUUUGGACUGGGCAAAGCUCAACACAGCGUGGCAAAGUGGCUGUGGCUAGACUGCCUCUCUGGAUUCCUCGUCAUUCAGCAGGGCAUCUCUGAGAGAGAUGCC: 0.04.
The same measure for UACGUAGGUGGUUUUCCCCUGAUAGUGCUAAGGGGGCCUGGAAGUUUGGACUGGGCAGGGCUCAACACAGCGUGGCAAAGUGGCUGUGGCUAGACUGCCUCUCUGGAUUCCUCGUCCCUCAGCAGGGCAUCUCUGAGAGAGAUGCC: 0.07; for UACGUAGGUGGUUUUCCCCUGAUAGUGCUAAGGGGGCCUGGAAGUUUGGACUGGGCAGGGCUCGACACAGCGUGGCAAAGCGGCUGUGGCUAGACUGCCUCUCUGGAUUCCUCGUCACUCAGCAGGGCAUCUCUGAGAGAAAUGCC: 0.
For UACGUAGGUGGUUUUCCCCUGAUAGUGCUAAGGGGGCCUGGAAGUUUGGACUGGGCAGGGCUCAACACAGCGUGGCAGAGUGGCUGUGGCUAGACUGCCUCUCUGGAUUCCUCGUCACUCAGCAGGGCAUCUCUGAGAGAACUGCC, the self-cleavage was determined as 0.13.
The same measure for UACGUAGGUGGUUUUCCCCUGAUAGUGCUAAGGGGGCCUGGAAGUUUGGACUGGGCAAAGCUCAACACAGCGUGGCAAAGUGGCUGUGGCUGGACUGCCUCUCUGGAUUCCUCGUCACUCAGCAGGGCAACUCUGAGGGAAAUGCC: 0.
Turning to UACGUAGGUGGUUUUCCCCUGAUAGUGCUAAGGGGGCCUGGAAGUUUGGACUGGGCAUAGCUCAACACAGCGUGGCAAAGUGGCUGUGGCUAGACUGCCUCUCUGGAUUCCUCGUCACUCAGCAGGGCGUCUCUGAGAGAAGUGCC, the self-cleavage is 0.02.
Then UACGUAGGUGGUUUUCCCCUGAUAGUGCUAAGGGGGCCUGGAAGUUUGGACUGGGCAGCGCUCAACACAGCGUGGCAAAGUGGCUGUGGCUAGACUGCCUCUCUGGAUUCCUCGUCACUCGGCAGGGCAUCUCUGAGGGAAAUGCC, with 1.31.
Then UACGUAGGUGGUUUUCCCCUGAUAGUGCUAAGGGGGCCUGGAAGUUUGGACUGGGCAAAGCUCAACACAGCGCGGCGAUGUGGCUGUGGCUAGACUGCCCCUCUGGAUUCCUCGUCACUCAGCAGGGCGUCUCUGAGAGAUAUGCC, with 0; and UACGUAGGUGGUUUUCCCCUGAUAGUGCUAAGGGGGCCUGGAAGUUUGGACUGGGCAGCGCUCAACACAGCGUGGCAAAGUGGCCGUGGCUAGACUGCCUCUCUGGAUUCCUCGUCACUCUGCAGGGCAUCUCUGAGAGAAAUGCC, with 0.16.
The same measure for UACGUAGGUGGUUUUCCCCUGAUAGUGCUAAGGGGGCCUGGAAGUUUGGACUGGGCAAAGCCCAACACAGCGUGGCAAAGUGGCUGUGGCUAGACUGCCUCUCUGGAUUCCUCGUCACCCAGCAGGGCAUCUCUGAGAGAAAUGCC: 0.05; for UACGUAGGUGGUUUUCCCCUGAUAGUGCUAAGGGGGCCUGGAAGUUUGGACUGGGCAGGGCUCAACUCAGCGUGGCAAAGUGGCUGUGGCUAGACUGCCUCUCUGGAUCCCUCGUCACUCAGCAGGGCAUCUCUGAGAGAAAUGCC: 0.
As for UACGUAGGUGGUUUUCCCCUGAUAGUGCUAAGGGGGCCUGGAAGUUUGGACUGGGCAGGGCUCAGCACAGCGUGGCAAAGUGGCUGUGGCUAGACUGCCUCUCAGGAUUCCUCGUCACUCAGCAGGGCAUCUCUGAGAGAAAUGCC, the self-cleavage stood at 0.
The same measure for UACGUAGGUGGUUUUCCCCUGAUAGUGCUAAGGGGGCCUGGAAGUUUGGACUGGGCAUAGCUCAACACAGCGUGGCAAAGUGGCUGUGGCUAGACUGCCCCUCUGGAUUCCUCGUCACUCAGCGGGGCAUCUCUGAGAGAAAUGCC: 0.01.
With UACGUAGGUGGUUUUCCCCUGAUAGUGCUAAGGGGGCCUGGAAGUUUGGACUGGGCAGGGCUCAACGCAGCGUGGCAGAGUGGCUGUGGCUAGACUGCCUCUCUGGAUUCCUCGUCACUCAGCAGGGCAUCUCUGAGAGAAAUGCC, the self-cleavage was determined as 0.12.
The same measure for UACGUAGGUGGUUUUCCCCUGAUAGUGCUAAGGGGGCCUGGAAGUUUGGACUGGGCAGGGCUCGACGCUGCGUGGCAAAGUGGCUGUGGCUAGACUGCCUCUCUGGAUUCUUCGUCACUCAGCAGGGCAUCACUGAGAGAAAUGCC: 0.48; for UACGUAGGUGGUUUUCCCCUGAUAGUGCUAAGGGGGCCUGGAAGUUUGGACUGGGCAAAGCUAAGUACAGCGUGGCAAAGUGACUGUGGCUAGACUGCCUCUCUGGAUUCCUCGUCACUCAGCAGGGCAUCUCUGAGAGAAAUGCC: 0.04; for UACGUAGGUGGUUUUCCCCUGAUAGUGCUAAGGGGGCCUGGAAGUUUGGACUGGGCAGCGCUCAACACAGCGUGGCAAAGUGGCUGUGGCUAGACUGCCACUCGGGAUUCCUCGUCACUCAGCAGGGCAUCUCUGAGAGAAAUGCC: 1.9.
The same measure for UACGUAGGUGGUUUUCCCCUGAUAGUGCUAAGGGGGCCUGGAAGUUUGGACUGGGCAGGGCUCAACACAGCGUGGCAAGGUGGCUGUGGCUAGACUGCCUCUCCGGAUUCCUCGUCACUCAGCAGAGCAUCUCUGAGAGAAAUGCC: 0.05; for UACGUAGGUGGUUUUCCCCUGAUAGUGCUAAGGGGGCCUGGAAGUUUGGACUGGGCAAAGCUCAACACAGCGUGGCAAAGUGGCUGUGGCUUGACUGCCUCUCUGGGUUCCUCGUCACUCAGCAGGGCAUCUCUGAGAGAAAUGCC: 0.03.
Then UACGUAGGUGGUUUUCCCCUGAUAGUGCUAAGGGGGCCUGGAAGUUUGGACUGGGCAGGGCUCAACACAGCGUGGCAAAGUGGCUGUGGCUAGACUGCCUCUCUGGAUUCCUCGUCACUCAGCAGGGCAUCUCUGGGAGGAAUGCC, with 0.09; and UACGUAGGUGGUUUUCCCCUGAUAGUGCUAAGGGGGCCUGGAAGUUUGGACUGGGCAGGGCUCAACACAGCGUGGCAGAGUGGCUGUGGCUAGACUGCCUCUCUGGAUUCCUCGUCACUCAGCAGGGCAUCUCUGAGAGAAACGCC, with 0; and UACGUAGGUGGUUUUCCCCUGAUAGUGCUAAGGGGGCCUGGAAGUUUGGACUGGGCAGGGCUCAACACAGCGUGGCAAAGUGGCUGUGGCUAGACUGCCUCUCUGGAUUCCUCGUCACUCAGCAGGGCGUCUCCGAGAGAAAUGCC, with 0.1.
As to UACGUAGGUGGUUUUCCCCUGAUAGUGCUAAGGGGGCCUGGAAGUUUGGACUGGGCAGGGCUCUACACAGCGCGGCAAAGUGGCUGUGGCUAUACUGCCUCUCUGGAUUCCUCGUCACUCAGCAGGGCAUCUCUGAGAGAAAUGCC, the self-cleavage is 0.04.
The same measure for UACGUAGGUGGUUUUCCCCUGAUAGUGCUAAGGGGGCCUGGAAGUUUGGACUGGGCAGGGCUCAACACAGCGUGGCAAAGUGGCUGUGGCUAGACUGCCUCUCUGGUUUCCUCGUCACUCAGCAGGGCGUCUCUGAGAGAAAUGCC: 0.17.
The same measure for UACGUAGGUGGUUUUCCCCUGAUAGUGCUAAGGGGGCCUGGAAGUUUGGACUGGGCAGGGCUCUACACAGCGUGGCAAAGUGGCUGUGGCUAGACUGCCUCCCUGGAUUCCUCGUCACUCAGCAGGGCAUCUCUGAGAGAAAUGCC: 0.06; for UACGUAGGUGGUUUUCCCCUGAUAGUGCUAAGGGGGCCUGGAAGUUUGGACUGGGCAGGGCUCAACACAGCGUGGCAAAGUGGCUGUGGCUAGACUGCCUCUCUGGAUUCCUCGUCACUCAGCAGGGCAUCUCUGAGAGAAGCGCC: 0; for UACGUAGGUGGUUUUCCCCUGAUAGUGCUAAGGGGGCCUGGAAGUUUGGACUGGGCAGGGCUCAGCACAGCGUGGCAAAGUGGCUGUGGCUAGACUGCCUCUCUGGAUUCCUCGUCGCUCAGCAGGGCAUCUCUGAGAGAAAUGCC: 0.
Then UACGUAGGUGGUUUUCCCCUGAUAGUGCUAAGGGGGCCUGGAAGUUUGGACUGGGCAGGGCUCAACACAGCGUGGCAAAGUGGCUGUGGCUAGACUGCCUCUCUGGAUUCCUCGUCUCUCAGCAGGGCAUCUCCGAGAGAAAUGCC, with 0.18; and UACGUAGGUGGUUUUCCCCUGAUAGUGCUAAGGGGGCCUGGAAGUUUGGACUGGGCAGGGCUCAACACGGCGUGGCAAAGUGGCUGUGGCUAGACUGCCUCUCUGGAUUCCUCGUCACUCAGCAGGGCUUCUCUGAGAGAAAUGCC, with 0.08.
With UACGUAGGUGGUUUUCCCCUGAUAGUGCUAAGGGGGCCUGGAAGUUUGGACUGGGCAGGGCUCAACGCAGCGUGGCAAAGUGGCUGUGGCUAGACUGCCUCUCUGGAUUCCUCGUCACUCAGCAGGGCAUCUCUGAGAGGAAUGCC, the self-cleavage amounted to 0.54.
UACGUAGGUGGUUUUCCCCUGAUAGUGCUAAGGGGGCCUGGAAGUUUGGACUGGGCAAAGCUCAACACAGCGUGGCAAAGUGGAAGUGGCUAGACUGCCUCUCUGGAUUCCUCGUCACUCAGCAGGGCAUCUCUGAGAGAAAUGCC: the self-cleavage was 0.03.
The same measure for UACGUAGGUGGUUUUCCCCUGAUAGUGCUAAGGGGGCCUGGAAGUUUGGACUGGGCAAAGCUCAACACAGCGUGGCAAAGUGGCUGUGGCUAGACUGCCUCUCUGGAUUCCUCGCCGCUCAGCAGGGCAUCUCUGAGAGAAAUGCC: 0.13; for UACGUAGGUGGUUUUCCCCUGAUAGUGCUAAGGGGGCCUGGAAGUUUGGACUGGGCAUAGCUCAACGCAGCGUGGCAAAGUGGCUGUGGCUAGACUGCCUCUCUGGAUUCCUCGUCACUCAGCGGGGCAUCUCUGAGAGAAAUGCC: 0.1; for UACGUAGGUGGUUUUCCCCUGAUAGUGCUAAGGGGGCCUGGAAGUUUGGACUGGGCAGGGCUCAACACAGCGUGGCAAGGUGGCUGUGGCUAGACCGCCUCUCUGGAUUCCUCGUCACUCAGCAGGGCAUCUCUGAGAGAAAUGCC: 0.
Then UACGUAGGUGGUUUUCCCCUGAUAGUGCUAAGGGGGCCUGGAAGUUUGGACUGGGCAAAGCUCAACACAGCGUGGCAAAGUGGCUGUGGCUAGACUGCCUCUCCGGACUCCUCGUCACUCAGCAGGGCAUCUCUGAGAGAAAUGCC, with 0.05.
The same measure for UACGUAGGUGGUUUUCCCCUGAUAGUGCUAAGGGGGCCUGGAAGUUUGGACUGGGCAGGGCUCAUCACAGCGUGGCAAAGUGGCCGUGGCUAGACUGCCUCUCUGGAUUCCUCGUCACUCAGCAGGGCAUCUCUGAGAGAAAUGCC: 0.2.
